{"source": "PubChem BioAssay AID1671194", "about": "(National Center for Advancing Translational Sciences (NCATS), 2021)", "note": "Among all 140,000 compounds or so, about 240 (0.17%) were called active. The inconclusive results got no clear call from the source; some entries with a clear call stand among them for comparison. Calls come from the whole dose curve; as a rule, active = well fitted inhibition curve with a large enough effect; inconclusive = small, poorly fitted or top-dose-only effect; inactive = no such curve, though single readings can be large or run the other way. Potencies beside an inconclusive call are fits to weak or partial responses and may not hold up. Potency is the fitted concentration of half-maximal effect; tags give direction and shape of the fitted curve.", "data": [{"experiment": "Primary qHTS assay for inhibitors of alpha-synuclein gene (SNCA) expression; note: nearly all actives have a fitted effect of over 45% in size", "details": "HEK-293 SNCA-luciferase knock-in, luminescence, 24 h; series mostly up to 57.2 µM", "values": [{"smiles": "Cc1ccc(C(=O)N[C@H]2CO[C@H]3[C@@H]2OC[C@@H]3Nc2nccc(-c3ccc4c(c3)OCO4)n2)cc1", "Potency": "inactive"}, {"smiles": "COc1ccc(N2CCN(C(=O)c3c(C)oc4ncnc(N5CCCCC5)c34)CC2)cc1", "Potency": "inconclusive: 25.1 µM [inhibitor, single point]"}, {"smiles": "CCn1c(=O)c2sccc2n2c(CCCC(=O)N3CCN(c4ccc(OC)cc4)CC3)nnc12", "Potency": "inconclusive: 0.178 µM [inhibitor, partial curve, poor fit]"}, {"smiles": "O=C1NC2(CCN(Cc3ccccn3)CC2)COc2ccccc21", "Potency": "inconclusive: 14.1 µM [inhibitor, partial curve, poor fit]"}, {"smiles": "O=c1[nH]c2ccc(NCc3ccc(-c4cccc(Cl)c4)o3)cc2[nH]1", "Potency": "inconclusive: 39.8 µM [inhibitor, single point]"}, {"smiles": "Cc1ccncc1C(=O)N1CCC(N2CC(OCC3CC3)C23CCCCC3)CC1", "note": "(stereo unspecified)", "Potency": "inconclusive: 12.6 µM [inhibitor, single point]"}, {"smiles": "CCOc1ccccc1CNC(=O)C1CCN(S(=O)(=O)c2cccc3nonc23)CC1", "Potency": "inconclusive: 39.8 µM [inhibitor, single point]"}, {"smiles": "O=C(CCCCCn1c(=O)[nH]c2ccccc2c1=O)NCc1cccc(Cl)c1", "Potency": "inactive"}, {"smiles": "O=C(CCC1CCCN(Cc2ccc(-c3ccccc3)cc2)C1)N1CCOCC1", "note": "(stereo unspecified)", "Potency": "inactive"}, {"smiles": "Cc1cc(C)c2c(CC(=O)Nc3ccc(S(=O)(=O)N4CCCC(C)C4)cc3)coc2c1", "note": "(stereo unspecified)", "Potency": "inconclusive: 35.5 µM [inhibitor, single point]"}, {"smiles": "O=C(Cc1cccnc1)N1CCCC(c2ccccc2)(c2ccccc2)C1", "Potency": "inactive"}, {"smiles": "CCC(C(=O)Nc1ccc(C(=O)OC)cc1)n1nc(-c2ccc(C)cc2)c2c(c1=O)CCCC2", "note": "(stereo unspecified)", "Potency": "inconclusive: 39.8 µM [inhibitor, single point]"}, {"smiles": "COc1ccc(-c2nc(C)nc3c2CN(C(=O)c2ccccc2Cl)CC3)cc1", "Potency": "inactive"}, {"smiles": "Cc1ccccc1OC(=O)c1snnc1C", "Potency": "inconclusive: 3.98 µM [inhibitor, full curve, poor fit]"}, {"smiles": "Cc1ncsc1CCC(=O)N1CC(=O)N(C2CCCCC2)CC(OCc2ccccc2)C1", "note": "(stereo unspecified)", "Potency": "inconclusive: 8.91 µM [inhibitor, single point]"}, {"smiles": "Cc1nn(-c2ccc(F)cc2)c(C)c1[C@@H]1C=C[C@@H](NC(=O)NC(C)C)C1", "Potency": "inactive"}, {"smiles": "COc1cccc2c1OCC(CNC(=O)CCN1Cc3ccccc3C1=O)C2", "note": "(stereo unspecified)", "Potency": "inactive"}, {"smiles": "CCOc1ccccc1NC(=O)CSc1nc2c(c(=O)[nH]1)CCC2", "Potency": "inconclusive: 39.8 µM [inhibitor, single point]"}, {"smiles": "COC[C@H]1C[C@@H](NCc2ccc(OC(F)(F)F)cc2)[C@H](O)[C@@H]1O", "Potency": "inconclusive: 50.1 µM [inhibitor, single point]"}, {"smiles": "O=C(c1ccc2c(c1)OCO2)N1CCC2(C1)C(=O)Nc1ccccc12", "note": "(stereo unspecified)", "Potency": "inconclusive: 11.2 µM [inhibitor, partial curve, poor fit]"}, {"smiles": "COc1cccc(-c2ccc(C(=O)N3CCC(NC(=O)c4ccc(Cl)cc4)CC3)cc2)c1", "Potency": "inactive"}, {"smiles": "Cc1ccc(-c2cc3c(=O)n(CCNC(=O)c4ccc5ccccc5n4)ccn3n2)c(C)c1", "Potency": "inconclusive: 39.8 µM [inhibitor, single point]"}, {"smiles": "Cc1cccc(N(C)C(=O)CN2C(=O)COc3ccc(S(=O)(=O)N4CCCCCC4)cc32)c1", "Potency": "inconclusive: 1.26 µM [inhibitor, partial curve, poor fit]"}, {"smiles": "COc1cccc(CNC(=O)c2cc3cccc4c3n2CC(C)S4)c1OC", "note": "(stereo unspecified)", "Potency": "inconclusive: 20 µM [inhibitor, partial curve]"}, {"smiles": "COCCCNC(=O)CCCN1C(=O)COc2ccc(C(=O)COc3cccc(C)c3C)cc21", "Potency": "inconclusive: 6.31 µM [inhibitor, partial curve, poor fit]"}, {"smiles": "COc1ccc(-c2ccc3ncc(Nc4ccnc(N5CCOCC5)c4)n3n2)cc1OC", "Potency": "inactive"}, {"smiles": "CC(C)C(=O)N1CCC(N2C(=O)C(O)C23CCCCC3)CC1", "note": "(stereo unspecified)", "Potency": "inactive"}, {"smiles": "Cc1cccc(-c2cccc(CN3CCC(NC(=O)c4ccc(Cl)nc4)CC3)c2)c1", "Potency": "inactive"}, {"smiles": "CC(C)(C)n1nnnc1C1CC2(CCOCC2)C(=O)N1Cc1ccc(C(F)(F)F)cc1", "note": "(stereo unspecified)", "Potency": "inconclusive: 3.16 µM [inhibitor, single point]"}, {"smiles": "Cc1cc(C)c(Cn2c(C)c(CNCCCc3ccccc3)c(C(=O)O)c2C)c(C)c1", "Potency": "inconclusive: 39.8 µM [inhibitor, single point]"}, {"smiles": "CN1CCN(C(c2ccccc2)c2sc3nc(-c4ccco4)nn3c2O)CC1", "note": "(stereo unspecified)", "Potency": "inconclusive: 17.8 µM [inhibitor, partial curve, poor fit]"}, {"smiles": "COCCn1c(Cn2nc3n(c2=O)CCCCC3)nnc1C1CC(N)C1", "note": "(stereo unspecified)", "Potency": "inconclusive: 11.2 µM [inhibitor, partial curve, poor fit]"}, {"smiles": "COc1ccc(Nc2ccnc(N3CCN([S+](=O)([O-])c4cccc(C(F)(F)F)c4)CC3)n2)cc1", "Potency": "inconclusive: 39.8 µM [inhibitor, single point]"}, {"smiles": "CC(=O)c1cccc(NC(=O)CCS(=O)(=O)c2cc(Br)cc3c2N(C(=O)C2CC2)CC3)c1", "Potency": "inconclusive: 3.55 µM [inhibitor, full curve]"}, {"smiles": "CCc1cccc(-n2nnnc2N2CCN(C(=O)CCc3ccccc3)CC2)c1", "Potency": "inconclusive: 11.2 µM [inhibitor, partial curve, poor fit]"}, {"smiles": "Cc1c(Cl)cccc1NC(=O)N(C)CC1CCOC1", "note": "(stereo unspecified)", "Potency": "inactive"}, {"smiles": "C[C@@H](N)C1CCC(C(=O)Nc2ccncc2)CC1", "note": "(stereo partly specified)", "Potency": "inconclusive: 13.6 µM [inhibitor, full curve, poor fit]"}, {"smiles": "Cc1cc(C(=O)N[C@@H]2C[C@H](Cn3cc(CN(C)C)nn3)[C@@H](O)[C@H]2O)c(C)o1", "Potency": "inactive"}, {"smiles": "CCS(=O)(=O)c1ncc(N(Cc2ccco2)Cc2sccc2C)c(C(=O)Nc2cc(C)ccc2C)n1", "Potency": "inconclusive: 31.6 µM [inhibitor, single point]"}, {"smiles": "CCCn1c(=O)c2sccc2n2c(CCCC(=O)N3CCN(c4ccccc4)CC3)nnc12", "Potency": "inconclusive: 39.8 µM [inhibitor, single point]"}, {"smiles": "COCCNc1ncccc1-c1noc([C@@H]2CCCN2C2CCC2)n1", "Potency": "inactive"}]}]}
